According to PubChem BioAssay AID1347165 (National Center for Advancing Translational Sciences (NCATS), 2019):
Screen size: about 220,000 compounds; about 5,700 (2.6%) were called active. Inconclusive means that the source gave no clear call. Such entries were picked first, then a sample of the others. The call rests on the fitted dose curve; in most records, active means well fitted inhibition curve with a large enough effect; inconclusive means small, poorly fitted or top-dose-only effect; inactive means no such curve, though single readings can be large or run the other way. Potencies beside an inconclusive call are fits to weak or partial responses and may not hold up.

What follows are compounds tested against Lysine-specific demethylase 5B (Homo sapiens) (UniProt Q9UGL1) (assay: Primary screen for KDM5B Histone Demethylases FDH-coupled qHTS). Settings: FDH-coupled NADH fluorescence (FDH is formaldehyde dehydrogenase); activity change, negative = inhibition: at 57.7 µM (top of the series) unless noted.
Outline: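 KDM5BΔAP (200 nM final) in 50 mM HEPES pH 7.5, 0.01% Tween-20 was preincubated 10 min at RT with compound over a concentration range. Substrate mix (H3K4me3 12.5 µM, α-KG 25 µM, Fe²⁺, ascorbate, NAD⁺, FDH) was added, and NADH fluorescence change over 30 min gave dose-response curves.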
Further: nearly all actives have a fitted effect of over 70% in size.
Potency means the concentration at half of the fitted maximal effect; tags describe the fitted curve by direction and shape.
Wherever activity change, negative = inhibition is given: 0% is about no effect.

Chain of UniProt Q9UGL1 (Q9UGL1 whole entry, looked up): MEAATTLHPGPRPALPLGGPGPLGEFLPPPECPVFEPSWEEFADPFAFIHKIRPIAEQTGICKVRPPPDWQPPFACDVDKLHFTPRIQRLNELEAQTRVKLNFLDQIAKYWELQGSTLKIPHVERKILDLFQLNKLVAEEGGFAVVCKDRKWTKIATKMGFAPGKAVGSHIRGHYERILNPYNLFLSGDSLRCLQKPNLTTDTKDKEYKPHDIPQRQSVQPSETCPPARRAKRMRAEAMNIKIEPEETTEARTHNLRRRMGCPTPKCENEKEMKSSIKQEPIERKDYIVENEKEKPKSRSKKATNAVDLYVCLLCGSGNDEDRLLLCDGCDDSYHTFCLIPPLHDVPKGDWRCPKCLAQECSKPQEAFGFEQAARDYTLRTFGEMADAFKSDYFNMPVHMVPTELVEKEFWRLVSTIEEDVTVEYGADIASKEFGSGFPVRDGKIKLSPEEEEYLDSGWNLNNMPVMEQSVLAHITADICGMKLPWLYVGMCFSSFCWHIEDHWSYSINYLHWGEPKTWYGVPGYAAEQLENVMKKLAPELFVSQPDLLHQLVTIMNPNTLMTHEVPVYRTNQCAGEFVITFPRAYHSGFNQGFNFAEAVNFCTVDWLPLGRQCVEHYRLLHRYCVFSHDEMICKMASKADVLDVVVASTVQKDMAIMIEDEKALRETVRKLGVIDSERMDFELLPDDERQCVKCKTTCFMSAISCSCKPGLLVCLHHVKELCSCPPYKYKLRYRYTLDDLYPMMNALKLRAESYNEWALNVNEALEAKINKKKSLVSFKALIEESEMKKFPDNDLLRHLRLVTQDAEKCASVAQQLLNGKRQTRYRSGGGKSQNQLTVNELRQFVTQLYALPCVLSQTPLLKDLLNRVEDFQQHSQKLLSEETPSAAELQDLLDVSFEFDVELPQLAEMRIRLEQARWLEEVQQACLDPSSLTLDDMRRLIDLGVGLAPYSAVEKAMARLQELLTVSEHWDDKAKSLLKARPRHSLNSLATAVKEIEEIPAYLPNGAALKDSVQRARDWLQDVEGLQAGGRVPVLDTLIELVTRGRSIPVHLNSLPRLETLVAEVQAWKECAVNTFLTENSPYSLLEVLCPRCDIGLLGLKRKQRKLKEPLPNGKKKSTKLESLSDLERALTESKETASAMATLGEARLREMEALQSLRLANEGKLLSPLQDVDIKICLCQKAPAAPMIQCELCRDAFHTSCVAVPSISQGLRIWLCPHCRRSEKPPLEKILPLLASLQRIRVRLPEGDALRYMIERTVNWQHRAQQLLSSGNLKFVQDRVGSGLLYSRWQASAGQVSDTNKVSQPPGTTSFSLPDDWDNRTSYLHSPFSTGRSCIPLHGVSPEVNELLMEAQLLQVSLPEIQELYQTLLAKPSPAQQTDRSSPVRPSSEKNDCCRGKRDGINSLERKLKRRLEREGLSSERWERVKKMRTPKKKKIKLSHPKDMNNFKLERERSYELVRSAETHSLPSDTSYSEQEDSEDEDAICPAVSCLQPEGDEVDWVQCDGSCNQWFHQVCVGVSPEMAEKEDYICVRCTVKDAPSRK

SMILES | Potency | activity change, negative = inhibition
O=C(c1ccsc1)N1CCCn2cc(-c3ccc4c(c3)OCO4)nc21 | inconclusive: 17.8 µM [inhibitor, partial curve, poor fit] | –
Cc1cccc(CNC(=O)CN2CC3CC(C2)[C@H]2CCCC(=O)N2C3)c1 (stereo partly specified) | – | inactive: 5.91%
CCOC(=O)Cn1c(=O)n(CC2CCCO2)c2nc(-c3cccc(C)c3)nc(C(N)=O)c21 (stereo unspecified) | inconclusive: 3.55 µM [inhibitor, partial curve, poor fit] | –
O=C(/C=C/c1ccccc1)Nc1cccc2c1CCCC2 | – | inactive: 24.1%
CCC(=O)Nc1ccc2nc(SCCOc3ccccc3)sc2c1 | – | inactive: -26.3%
O=C(Nc1ccccc1)c1ccc2c(c1)OCCN(CCC(F)(F)F)C2 | – | inactive: -8.16% [at 86.2 µM]
O=C(Nc1ccccc1)Nc1nnc(C2CCCC2)s1 | – | inactive: 8.9%
COC(=O)c1ccc(/C=N/Nc2nc(C)c(C)s2)cc1 | inconclusive: 22.4 µM [inhibitor, single point] | –
Cc1cc(C(=O)N[C@@H]2C[C@H](Cn3cc(C4CC4)nn3)[C@@H](O)[C@H]2O)no1 | inconclusive: 25.1 µM [inhibitor, partial curve, poor fit] | –
Fc1ccccc1CN1CCc2ccccc2C1 | inconclusive: 14.1 µM [inhibitor, partial curve, poor fit] | –
CCn1cnnc1-c1nn(C)c2c1CN(C(=O)c1n[nH]c(=O)c3ccccc13)CC2 | – | inactive: -17%
CCN(CC)C(=O)[C@@H]1CCC[C@@H](NCc2nccn2C)CN(C)C(=O)C1 | inconclusive: 17.8 µM [inhibitor, partial curve, poor fit] | –
Cc1ccc(-n2nc(CO)c(C(=O)NC(C)CCCc3ccccc3)n2)cc1C (stereo unspecified) | inconclusive: 2.82 µM [inhibitor, full curve, poor fit] | –
CN1CCCCC(CC(=O)Nc2ccc(N3CCOCC3)cc2)C1=O (stereo unspecified) | inconclusive: 10 µM [inhibitor, partial curve] | –
O=C(Oc1ccc2cc(-c3nc4ccccc4s3)c(=O)oc2c1)C1CC1 | inconclusive: 35.5 µM [inhibitor, single point] | –
CS(=O)(=O)c1ccc(OCC2(CNC(=O)Nc3cccnc3)C[C@@H](O)[C@@H](O)C2)cc1 (stereo partly specified) | inconclusive: 12.6 µM [inhibitor, partial curve, poor fit] | –
Cc1ccc(-c2nnn(C(C)C(=O)Nc3ccc(C#N)cc3)n2)cc1 (stereo unspecified) | – | inactive: -11.2%
NS(=O)(=O)c1ccc(C(=O)Nc2ccc(-c3nc4cccnc4s3)cc2)cc1 | inconclusive: 22.4 µM [inhibitor, partial curve, poor fit] | –
Cc1cccc(CNC(=O)c2noc(-c3ccc4c(c3)OCO4)n2)c1 | inconclusive: 31.6 µM [inhibitor, single point] | –
CCc1ccc(NC(=O)C(=O)NCC(c2cccnc2)N2CCN(Cc3ccccc3)CC2)cc1 (stereo unspecified) | inconclusive: 17.8 µM [inhibitor, partial curve, poor fit] | –
CC(=O)N1CCC(N2C[C@@H]3C[C@H]2C(=O)N(Cc2ccc(OC(F)(F)F)cc2)c2ccccc2O3)CC1 | inconclusive: 25.1 µM [inhibitor, single point] | –
O=c1c2nc(OCc3ccccc3)ccc2ncn1Cc1ccccc1 | inconclusive: 44.7 µM [inhibitor, single point] | –

SMILES | Potency | activity change, negative = inhibition
Cc1cc2c(cc1C)NC(CC(=O)Nc1ccccc1)C(=O)N2 (stereo unspecified) | inconclusive: 12.6 µM [inhibitor, partial curve, poor fit] | –
O=C(Nc1ccccc1Cl)c1cnc(N2CCOCC2)c2ccccc12 | – | inactive: -12.7%
COc1ccc(C(=O)CC(=O)C(=O)Nc2cccc(F)c2)cc1 | inconclusive: 31.6 µM [inhibitor, partial curve, poor fit] | –
CN(CCc1ccccn1)[C@@H]1[C@H](O)[C@H](CO)O[C@@H]1CNC(=O)Nc1ccc(OC(F)(F)F)cc1 | inconclusive: 28.2 µM [inhibitor, partial curve, poor fit] | –
CCc1ccc(OCC(=O)OCC(=O)c2cc3ccccc3o2)cc1 | – | inactive: 30.3%
c1cc(-c2ccco2)cc(-c2nc(C3CCOC3)no2)c1 (stereo unspecified) | inconclusive: 17.8 µM [inhibitor, single point] | –
O=C1NC2(C(=O)Nc3cccc(Cl)c3)CCC(=O)N2c2ccccc21 (stereo unspecified) | – | inactive: 13.8%
O=S1(=O)c2ccc(N3CCN(Cc4ccccc4F)CC3)cc2Oc2ccccc2CN1Cc1cn(Cc2cccc(F)c2)nn1 | inconclusive: 14.1 µM [inhibitor, partial curve, poor fit] | –
COc1cc(/C=C/C(=O)OCCOc2ccccc2F)ccc1OC(F)F | inconclusive: 39.8 µM [inhibitor, single point] | –
CCCc1cc(NCc2cn3c(n2)SCC3)n2nccc2n1 | inconclusive: 22.4 µM [inhibitor, partial curve, poor fit] | –
CCCCCn1cc2c(c1-c1ccc(Br)cc1)c(=O)n(C)c(=O)n2C | inconclusive: 1.78 µM [inhibitor, full curve, poor fit] | –
COC(=O)c1ccc2nc(C[C@@H]3C[C@@H](C(C)C)[C@H](CNC(=O)c4ccccc4)C=C3C)[nH]c2c1 | inconclusive: 28.2 µM [inhibitor, single point] | –
CCc1ccccc1NC(=O)Cn1c(=O)n(-c2ccc(C)cc2)c(=O)c2c1c1cc(C)ccc1n2C | inconclusive: 31.6 µM [inhibitor, partial curve, poor fit] | –
COc1ccc(OC)c(NC(=O)c2cc3cc(C)ccc3n2C)c1 | inconclusive: 35.5 µM [inhibitor, partial curve, poor fit] | –
CCNc1ncc(C(=O)N2CCN(CCCCOC)CC2)cn1 | active: 25.1 µM | –
O=C(Nc1cccc(-c2nc3c(s2)CCCC3)c1)C1CC1 | inconclusive: 39.8 µM [inhibitor, single point] | –
Cc1ccc(NC(=O)Nc2ccc(C)n(CC(=O)Nc3ccc4c(c3)OCO4)c2=O)cc1 | inconclusive: 35.5 µM [inhibitor, single point] | –
COc1ccccc1-c1nc(C(=O)NCc2ccc(F)cc2)n2ccccc12 | active: 79.4 µM | –
COCCNC(=O)CCc1c(C)nc2c(-c3ccc(F)cc3)c(C)nn2c1C | inconclusive: 2.24 µM [inhibitor, partial curve, poor fit] | –
O=C(NCCc1ccccc1)c1ccc(Cn2c(SCc3cccc(F)c3)nc3cccnc32)cc1 | inconclusive: 35.5 µM [inhibitor, partial curve, poor fit] | –
CN1CCCCCCN(S(=O)(=O)c2ccccc2)CCC1=O | – | inactive: 2.99%
Cc1ccc(CC(=O)NC2CCN(c3cc(-c4ccc(F)cc4)[nH]n3)C2)cc1 (stereo unspecified) | inconclusive: 3.55 µM [inhibitor, partial curve] | –

SMILES | Potency | activity change, negative = inhibition
COc1ccc(NC(=O)c2ccc3nc(CCc4ccccc4)oc3c2)c(OC)c1 | inconclusive: 31.6 µM [inhibitor, partial curve, poor fit] | –
O=C(CSc1nc2cc3c(cc2c(=O)n1Cc1ccco1)OCO3)Nc1ccc(F)cc1 | – | inactive: -41.4%
O=C(Nc1cccc2ccccc12)O[C@@H]1CO[C@H]2[C@@H]1OC[C@@H]2NCC1CCCCC1 | inconclusive: 31.6 µM [inhibitor, single point] | –
CC(=O)N1CCC(N2C[C@@H]3C[C@H](C2)c2ccc(-c4ccccc4CN(C)C)c(=O)n2C3)CC1 | inconclusive: 31.6 µM [inhibitor, single point] | –
CC[C@H](C)[C@H](N)C(=O)N1CCC2(CCC(=O)N(Cc3ccccc3)C2)CC1 | – | inactive: -17.8%
O=C(/C=C/c1ccc(-c2cc(Cl)ccc2Cl)o1)c1ccc(Cl)cc1 | – | inactive: 0.481%
Cc1cc(C(=O)N[C@@H]2CN(S(C)(=O)=O)C[C@H]2CN(C)C)n[nH]1 | – | inactive: 31.4%
CC1=C[C@@H](CN2CCOCC2)[C@H](C(C)C)C[C@H]1Cc1nnc(-c2ccc(N(C)C)cc2)o1 | active: 35.5 µM | –
COCCn1c(SCc2ccc(Cl)cc2Cl)nnc1-c1ccncc1 | – | inactive: 22.6%
Cc1ccn(CC(=O)NCCn2c(C)cnc2C2CC2)n1 | inconclusive: 28.2 µM [inhibitor, single point] | –
CN(C)C[C@@H]1CN(c2ccccn2)C[C@H]1NC(=O)Cc1ccsc1 | active: 28.2 µM | –
Cn1c(=O)[nH]c(=O)c2c1nc(N1CCCCCC1)n2CCc1ccccc1 | – | inactive: 11.8%
COc1ccccc1Nc1nc2ccccc2nc1NS(=O)(=O)c1ccc(C)c(C)c1 | – | inactive: 16.6%
Cc1ccc2nc(-c3ccc(Cl)cc3)cc(C(=O)NCc3ccncc3)c2c1 | inconclusive: 28.2 µM [inhibitor, partial curve, poor fit] | –
CCOc1ccc(C(=O)c2cn(CC(=O)Nc3ccc(F)cc3)c3cc4c(cc3c2=O)OCO4)cc1 | – | inconclusive: -32.8% [inhibitor]
CCC(O)c1cc2n(n1)CCN(CC(=O)Nc1cnn(C)c1)C2 (stereo unspecified) | inconclusive: 10 µM [inhibitor, partial curve] | –
CN(C)CCCN(C(=O)c1ccc(Br)s1)c1nc2ccc(F)cc2s1 | inconclusive: 28.2 µM [inhibitor, single point] | –
CCc1ccc2oc(C(=O)NCC(c3ccc(C)o3)N3CCCCC3)cc(=O)c2c1 (stereo unspecified) | – | inactive: 2.65%
COc1ccc(Cl)cc1C(=O)NCc1nnc2c(-c3nc(C(C)C)no3)cccn12 | – | inactive: -16.6%
CCC(CC)c1nnc(NC(=O)c2cc(C)nc3ccccc23)s1 | – | inactive: 15.3%
NC(=S)N/N=C/c1cc(-c2ccccc2)[nH]c1-c1ccccc1 | inconclusive: 25.1 µM [inhibitor, partial curve, poor fit] | –
Cc1cc(C)n2ncc(CN3CCCC3c3nc(-c4ccncc4)no3)c2n1 (stereo unspecified) | inconclusive: 20 µM [inhibitor, partial curve, poor fit] | –
